Some of the results follow.
Test system: PfAP2-HC AP2 domain (GST-tagged)
Assay: gcPBM binding intensity (ln(normalized median fluorescence intensity)); higher = stronger DNA binding
Summary of the method: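 For binding intensity, the highest Masliner-normalised natural-log median intensity across replicate spots of either probe orientation was taken. Protein bound to the array was stained with Alexa488 anti-GST antibody and scanned at 488 nm. The protein, GST-tagged P. falciparum DNA-binding domains from E. coli at about 25 μg on average, had been applied for 1 h to an Agilent 4 × 180k array of primer-extended double-stranded 36-bp intergenic genomic probes and negative controls.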

Sequence | gcPBM binding intensity (ln)
ATGAATTGACCATATTGTACATATTTAGGACTTACC [XGTACX_site8072] | 9.55
AAATATATGAAATATACACACTTCTTTGGTATTATT [CACACA_site4414] | 9.81
TTTATATAATTTTAATGTACATATATATATATAAAT [XGTACX_site4381] | 9.52
TTTTCTTACATGAGTGTACACACTTTTTTTCAGAAA [CACACA_site70] | 9.71
TTCTTCACATACACTTCAAAATTTGATAAAACATTA [CACACA_negctrl_site472] | 9.67
TAATAAATAAGATTCACACATATTTAAATGTTATGC [CACACA_site5275] | 9.54
TATCTATAATATTATACACACATATATGCATAATAT [CACACA_site6175] | 9.98
TTATTTGAATAATGTTTGCACTTAGAGTATTTTATA | 9.57
ATATATCATAAATAAATGAAAATATTTTCTATGTGT [CACACA_negctrl_site689] | 9.66
AATCAAAATAATTTAACACACAATTTTAATACTGTT [CACACA_site2375] | 9.75
AAATTCCATGAAAAAAGTACTAATTAATACAATATA [XGTACX_site2877] | 9.69
TTTAAGAATTAACGGGGTACAATTCTTAAATATATA [XGTACX_site669] | 9.31
TAGAAGTACATATATGCATGTTAATTTTAAAGGAGG [TGCATGCA_site538] | 9.75
ATATATATATAGTGTTGTACATTTAAAAATAATATA [XGTACX_site2627] | 9.71
ATTAAAAATATTAGTTGTACTTTATATTTTCATATA [XGTACX_site3614] | 9.57
TGTTTTATTTTTTTTGTGCACATACCTTTAGCATCA [GTGCAC_site9812] | 9.88
TAATTATAATAAATATTCATATGTTCAAATATATAT [CACACA_negctrl_site151] | 9.42
ATGTGATAGAAGTACACACACATATGTATTTATAAT [CACACA_site5075] | 10.1
TTTTAAAAACGGCATGCATGTAATACATGGAAGGAA [TGCATGCA_site480] | 10

Sequence | gcPBM binding intensity (ln)
TATATATAATTCATACATTTTAAATATATTTATTTA [CACACA_negctrl_site840] | 9.33
TTTGTTGACAGACACACACACATACATATATATATA [CACACA_site2288] | 10.4
TATAATAATATAATGGTGCATGTATATAACCATATA | 9.57
AAATAAATATAAATAAATAAATAAATAAATATATAT [CACACA_negctrl_site827] | 9.79
TTAATAATTCTTAAAAGTACATAACTTTTTTTTTTT [XGTACX_site751] | 9.33
GCTCTTTTGTTATGGTGTACCCTCCATGTAACATAA [XGTACX_site91] | 9.63
TCTTACGGATTCATTGTGCACATATATATATATATA [GTGCAC_site9896] | 10.1
TTTTTTATTAAAAGTAGTACACATGAAAAAAAAAAA [XGTACX_site5524] | 9.53
ATTTTTATAGAAATATGTACACAATATGTATATATT [XGTACX_site7993] | 9.71
TTAATATAGATATAACCACACACATACATCTAATTC [CACACA_site8519] | 10.2
TTTAAAAAAATTCATGCACACGAAATAAAAAGCACC [CACACA_site8214] | 9.86
TCTTTTATGCACATTGAGTAAACAACATATTTTTAA [TGCATGCA_negctrl_site561] | 9.61
TATTTTATATGATAGGTGCATTTTTTTTTTTTTTTT [GTGCAC_site9757] | 9.56
ATTTTTTCAAAATGGAAAACTTATCAGTGAAAAAAA [CACACA_negctrl_site1087] | 9.56
CTTGACCCCCTTTGTTGTACTGACATTTGTGAGCTT [XGTACX_site591] | 9.63
ATTTTTTTATACAATTTTATATATTAAATATTATAA [GTGCAC_negctrl_site86] | 9.35
TGTATTTTTAACATATGTACGAATAGCACGTGTTAT [XGTACX_site3640] | 9.59
TAAAAATGGGAGGGGTGTACTACACAATAAAATTAT [XGTACX_site5641] | 9.8
TTTGTGTAAAGAATCAGTACATATAATATATATATA [XGTACX_site1972] | 9.57

Sequence | gcPBM binding intensity (ln)
ATATGTATTGGAGTGTGTACATATATATATATTTAT [XGTACX_site5633] | 9.96
TTAATAATGTTTTATTGTACTTTTTTGTGGGTTTAT [XGTACX_site5670] | 9.84
GTGCTACATCATATGTGTACATATACCAAACTGTAT [XGTACX_site8233] | 9.81
ATATACATTCAAGGCTGTACACTATATTTTTTTTTT [XGTACX_site6514] | 9.82
AGTATACACGAACACACACACACATATATAAATATA [CACACA_site6913] | 10.7
TAAAGTATTACAACCACACACACACCCATATATTAT [CACACA_site4159] | 11.1
TATAAAATTATTAAACAAGAAAATTTTAGGTAATAC [TGCATGCA_negctrl_site568] | 9.7
ATAATATATTTTTGAACACACAATATATATATATAT [CACACA_site4124] | 9.66
ATATAAATATGACACACACACAAAAAAAATAAAGAC [CACACA_site6208] | 10.7
TATAATATATTTTGATGTACAAATATATTATATATA [XGTACX_site8633] | 9.54
TTGATAAAACGTTATGCACACGTACGTGGGTATTTA [CACACA_site8445] | 9.85
TAATTTAAAAATTCCTGTACTCAGTTTTTTCTATTT [XGTACX_site4961] | 9.76
TAAGTGTATGTATATAAACACACATACATATATATA [CACACA_site8397] | 9.93
AAAAATATGTCCATGAAAAGGATAGGCAGGTAATCA [XGTACX_negctrl_site93] | 9.8
AAATATATTTTACATTGTACATGAATAAACTATAAA [XGTACX_site2080] | 9.45
AAAAATTAAATAAATTTACACACTAATAATTACATA [CACACA_site8260] | 9.63
ACGTTAAAATATTGGGTGCTAACACAATAAAAATAA | 9.77
TACAATTTTTTAAATGCACACAAAAGGAATAAATAA [CACACA_site8075] | 9.8
TAATATATGTATTGCACACCTATAACCATTATTTCT [CACACA_site1498] | 9.89

Source: the supplement of paper PMC11417369
